First the molecules themselves.
B1: tRNA (parent)
chain: CUCUCGGUAGCCAAGUUGGUUUAAGGCGCAAGACUUUAAUUUAUCACUACGAAAUCUUGAGAUCGGGCGUUCGACUCGCCCCCGGGAGAUUUUUUCCUCGAGCAA

Variants at the floor of the assay are shown more often than the library holds them. A value given as a limit tells only on which side of the number the result lay.

Variants of B1 are the subject of this data set. In words: nonsense suppression (GFP-seq) (ratio to wild type); higher = more function; SUP4oc tRNA, yeast GFP reporter sort-seq. In short, it runs like this:
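Raffinose/galactose medium with 80 mg/L adenine was used to grow yeast carrying genome-integrated tRNA variants (~3% random-mutation library), RFP, and a galactose-driven GFP ochre reporter. Cells went into GFP/RFP bins, which were Illumina-sequenced, and variants with ≥100 reads and ≥30 cells were scored. Nonsense suppression (GFPSEQ) is the per-bin median GFP/RFP weighted by estimated cell share and expressed relative to the unmutated parent tRNA.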
For the variant CUCUCGGUAGCCAUGUUGGUUUAAGGCGAAAGACAUUAAUUUAUCACUACGAAACCUUGAGAACGGGCCUUCGACUCGCCCCCGGGAGAUUUUUUCCUCGAGCAA [A14U C29A U35A U55C U63A G69C], the nonsense suppression is no more than 0.026.

With CACUCGGUAGCCAAGUUGGUUUAAGGCGCAAGACUUUAAUUUAUCACUACGAAAUCUUGAGAUCGGGCCUUCGACUCGCCCCCGGGAGAUUUUUUCCUCGAGCAA [U2A G69C], the nonsense suppression is no more than 0.026.

In the case of CUCUCGAUAGCCAAGUUGGUUUAAGGCGCAAGACUUUAAUUUAUCACUACGAAAUCCUGAGAUCGGGCGUUCGACUCGCCCCCGGGAGAUUUUUUCCUCGAGCAA [G7A U57C], the nonsense suppression was no more than 0.026.

In the case of GUCUCGGUAGCCAAGUUGGUUUAAGGCGCUAGACUUUAAUUUAUCACUACGAAAUCUUGAGAUCGGGCGUUCGACUCUCCCCCGGGAGAUUUUUUCCUCGAGCAA [C1G A30U G78U], the nonsense suppression is no more than 0.026.

For the variant CUCUCGGUAGGCAAGUUGGUUUAAGGCGCAAGACUUUAAUUUAUCACUACGAAAUCUUGAGAUCGGGCGUUCCACUCGCCCCCGGGAGAUUUUUUCCUCGAGCAA [C11G G73C], the nonsense suppression is no more than 0.026.

Turning to CUCACGGUAGCCAGGUUGGUUUAAGGCGCAAGUAUUUAAUUUAUCACUACGAAAUCUUGAGAUCGGGCGUUCGACUUGCCCCCGGGAGAUUUUUUCCUCGAGCAA [U4A A14G A33U C34A C77U], the nonsense suppression was no more than 0.026.

Consider CUCUCGGUAGACAAGUUGGUUUAAGGCGCAAGAUUUUAAUUUAUCACUACGAAAUCUUGAGAUCGGGCGUUCGACUCGCCCCCGGGAGAUUUUUUCCUCGAGCAA [C11A C34U], for which the nonsense suppression is no more than 0.026.

For the variant CUCUCGAAAGCCAAUUUGCUUUAAGGCGCAAGACUUUAAUUUAUCACUACGAAUUGUUGAGAUCGUGCGUUCGACUCGCCCCCGGGGGAUUUUUUCCUCGAGCAA [G7A U8A G15U G19C A54U C56G G66U A87G], the nonsense suppression was no more than 0.026.

For CUCUCGGUAGUCAAGUUGGUUUAAGGCGCGUGACGUUAAUUUAUCACUACGAAAUCUUGAGAUCGGCCGUUCGACCCGCCCCCGGGAGAUUUUUUCCUCGAGCAA [C11U A30G A31U U35G G67C U76C], the nonsense suppression is no more than 0.026.

With CUCUCCCUAGCCAAGUUGGUUUAAGGCGCAUGACUUUAAUUUAUCACUACGAAAUCUUGAGAUCGGGCGUUCGACUCGCCCCCGGGAGAUUUUUUCCUCGAGCAA [G6C G7C A31U], the nonsense suppression is no more than 0.026.

Turning to AUCUGGGUAGCCAAGUUGGUUUAAGGCGCAAGACUUUAAUUUAUCACUACGAAAUCUUGAGAUCGGGCGUUCGACUCGCCCCCGGGAGAUUUUUUCCUCGAGCAA [C1A C5G], the nonsense suppression was no more than 0.026.

CUCUCGGUAGCCAAGUUGGUUUAAGGCGCUAGACUUUAAUUUAUCACUACGAAAUCUUGAGAUCGGGCGUUCGACUCGCCACCGGGAGAUUUUUUCCUCGAGCAA [A30U C81A]: the nonsense suppression is 0.0383.

For the variant CUCUCGGGAGCCAAGUUGGUUUAAGGGGCAAGACUUUAAUUUAUCACUACGAAAUCUUGAGAUCGGGCGUUCGACUCGCCCUCGGGCGAUUUUUUCCUCGAGCAA [U8G C27G C82U A87C], the nonsense suppression is no more than 0.026.

For the variant CUCUCAGUAGCCGAGUUGGUUUAAGGCGCAAGACUUUAAUUUAUCACUACGAAAUCUUGAGCGCGGGCGUCCGACUCGCCCCCGGAAGAUUUUUUCCUCGAGCAA [G6A A13G A62C U63G U71C G86A], the nonsense suppression is no more than 0.026.

In the case of CUCUCGGUAGCCAAGUUGGUUUAAGCUGCAAGACUUUAAUUUAUCACUACGAAAUCUUGAGAUCAGGCGUUCGACUCGCCCCCGGGAGAUUUUUUCCUCGAGCAA [G26C C27U G65A], the nonsense suppression is no more than 0.026.

As to CUCUCGGUAGCCAAGUUGGUUUAAGGCGCAAGACUUUAAUUUAUCACUACGAAAUCUUCAGAUCGGGCUUUCGACUCGCCCCCGGGAGAUUUUUUCCUCGAGCAA [G59C G69U], the nonsense suppression is no more than 0.026.

CUCUCGGUAGCCAAGUUGGUUAAAGGCGCAAGACUUUAAUUUAUCACUACGAAAUCUUGAGACCGGGCGUUCGACUGGCCCCCGGGAGAUUUUUUCCUCGAGCAA [U22A U63C C77G]: the nonsense suppression was no more than 0.026.

Turning to CUCUGGGUAGCCAAGUUGGGUUAAGGCGCAAGAGUUUAAUUUAUCACUACGAAAUCUUGAGAUCGGGCGUUCGACUCGCCCCCGGGAGAUUUUUUCCUCGAGCAA [C5G U20G C34G], the nonsense suppression was no more than 0.026.

With CUCUCGGUAGGCUAGUUGGUUUAAGGCGCAAGACUUUAAUUUAUCACUACGAAAUCUUGAGAUCGGGCGUUCGACUCGCCCCCGGGAGAUUUUUUCCUCGAGCAA [C11G A13U], the nonsense suppression is no more than 0.026.

Consider CUCUCGGUAGCCAAGUUGGUUUGAGGCGCAAGUCCUUAAUUUAUCACUACGAAAUCUUGAGAUCGGGCGUUCGACUCGCCCCCGGGAGAUUUUUUCCUCGAGCAA [A23G A33U U35C], for which the nonsense suppression is no more than 0.026.

For the variant CUCUCGGUAGCCAAGUUGGUGUAAGGCGCAAGACUUUAAUUUAUCACUACGAAAUCUUGAGUUCAGGCGUUCGACUCGCCCCCGCGAGAUUUUUUCCUCGAGCAA [U21G A62U G65A G85C], the nonsense suppression is no more than 0.026.

As for CUCUCGGUACCCAAGUUGGUUUAAGGCGCAAGACGUUAAUUUAUCACUACGAAAUCUUGAGAUCGGGCGUUCGACUCGCCCCCGGGAGAUUUUUUCCUCGAGCAA [G10C U35G], the nonsense suppression was no more than 0.026.

On to CUCUCGGUAGCCAAGUUGGCUUAAGGCGCAAGACUUUAAUUUAUCACUACGAAAGCUUGAGAUCGGGCGUUCGACUCGCCCCCGGGGGAUUUUUUCCUCGAGCAA [U20C U55G A87G], for which the nonsense suppression was no more than 0.026.

CUCUCUGUAGCCAAGUAGGUUUAAGGCGCAAGACUUUAAUUUAUCACUACGAAAUCUUGAGAUCGGGCGUUCGACUCGCCCCCGGGAGAUUUUUUCCUCGAGCAA [G6U U17A]: the nonsense suppression is no more than 0.026.

Consider CCCUCGGAAUCCAAGUUGGUUUAAGGCGGAAGACUUUAAUUUAUCACUACGAAAUCUUGAGACCGGGCGUUCGACUCGCCCCCGGGAGAUUUUUUCCUCGAGCAA [U2C U8A G10U C29G U63C], for which the nonsense suppression is no more than 0.026.

Turning to CUCUCGGUAGGCAAGUUGGUUUAAGGCGCAGGACUUUAAUUUAUCACUACGAAAUCUUGAGAUCGGGAGUUCGACCCGCCCCCGGGAAAUUUUUUCCUCGAGCAA [C11G A31G C68A U76C G88A], the nonsense suppression is no more than 0.026.

Turning to CUCUCGGUAGCCAAGUUGGUUUAAGACGCAAGACUUUAAUUUAUCACUACGAAAUCUUGAGUUCGGGCGUUCGACUCGCCCCCGGGAGAUUUUUUCCUCGAGCAA [G26A A62U], the nonsense suppression is no more than 0.026.

The values are drawn from the RNAGym collection of RNA variant scans (doi:10.1101/gad.245936.114).
